Assay results from PubChem BioAssay (NCATS).
Several values for one entry are separate records, joined by “and”; a condition that tells them apart may be missing. Equal entries are not always repeated. The inconclusive results got no clear call from the source; some entries with a clear call stand among them for comparison. A potency beside an inconclusive call is a rough fit, not a confirmed value. Activity calls are given as the source filed them. Calls follow the shape of the dose curve; as a rule, active = well fitted curve in the direction sought with a large enough effect; inconclusive = small, poorly fitted or top-dose-only effect, or another doubt; inactive = no such curve, though single readings can be large; an effect the other way counts as inactive or inconclusive.

test: Primary qHTS for inhibitors of nuclear receptor binding SET domain protein 2 (NSD2) in an isogenic RCH-ACV NSD2 p.E1099K mutant (9B) (AID 1645876); settings: RCH-ACV NSD2 E1099K (9B) viability, CellTiter-Glo, 72 h; series mostly up to 44.9 µM
Also: nearly all actives have a fitted effect of over 70% in size.
Potency is read from the fitted curve at half-maximal effect; tags tell the direction and shape of the fitted curve.

Which Potency does the source give for `COc1ccc(C2CC(c3ccccc3)=NN2c2ccc(S(N)(=O)=O)cc2)cc1` (stereo not given) here?
The Potency was inconclusive: 23.5 µM [inhibitor, single point].

With `CC1=C(C)C(=O)C(C(CCCCCC(=O)O)c2ccccc2)=C(C)C1=O` (stereo not given) as the compound, how does the Potency read?
Its Potency is inconclusive: 26.6 µM [inhibitor, single point].

For `CC(C)Cc1ccc(C(C)C(=O)O)cc1` (stereo not given), which Potency is on record?
The Potency was “inactive”.

With `N=C1N=C(N)c2cc3ccccc3cc21` as the compound, how does the Potency read?
The Potency was inconclusive: 48.6 µM [inhibitor, single point].

Which Potency does the source give for `CCCc1nc2c(C)cc(-c3nc4ccccc4n3C)cc2n1Cc1ccc(-c2ccccc2C(=O)O)cc1` here?
Its Potency is “inactive”.

For `CS(=O)c1ccc(-c2nc(-c3ccc(F)cc3)c(-c3ccncc3)[nH]2)cc1` (stereo not given), which Potency is on record?
Its Potency is active: 18.6 µM and inconclusive: 18.3 µM [inhibitor, partial curve].

test: Primary qHTS for inhibitors of nuclear receptor binding SET domain protein 2 (NSD2) in an RCH-ACV wild type WT cells (2C) (AID 1645877); settings: RCH-ACV (leukaemia line) NSD2 WT (2C) viability, CellTiter-Glo, 72 h; series mostly up to 44.9 µM

Which Potency does the source give for `Nc1ccc(O)c([N+](=O)[O-])c1` here?
The Potency was inconclusive: 19.3 µM [inhibitor, partial curve].

With `O=C(O)c1cc(O)c(O)c(O)c1` as the compound, how does the Potency read?
Its Potency is inconclusive: 23.7 µM [inhibitor, single point].

With `CN1CCN(C2Cc3ccccc3Sc3ccc(Cl)cc32)CC1` (stereo not given) as the compound, how does the Potency read?
Its Potency is inconclusive: 33.5 µM [inhibitor, single point].

Which Potency does the source give for `COc1ccc(O)cc1` here?
The Potency was inconclusive: 29.9 µM [inhibitor, partial curve, poor fit].

Which Potency does the source give for `C=C[C@H]1CN2CC[C@H]1C[C@H]2[C@H](O)c1ccnc2ccc(OC)cc12` here?
The Potency was inconclusive: 18.3 µM [inhibitor, partial curve].

With `CNC(=O)c1ccc(C)c(-n2c(C)cc(OCc3ccc(F)cc3F)c(Br)c2=O)c1` as the compound, how does the Potency read?
The Potency was inconclusive: 18.6 µM [inhibitor, partial curve].

With `C[C@](N)(Cc1ccc(O)c(O)c1)C(=O)O` as the compound, how does the Potency read?
The Potency was inconclusive: 23.5 µM [inhibitor, single point].

With `C[C@@H]1CN(Cc2ccc(F)cc2)[C@@H](C)CN1C(=O)c1cc2c(C(=O)C(=O)N(C)C)cn(C)c2cc1Cl` as the compound, how does the Potency read?
The Potency was inconclusive: 18.6 µM [inhibitor, partial curve].

For `c1ccc2sc(SSc3nc4ccccc4s3)nc2c1`, which Potency is on record?
Its Potency is inconclusive: 13 µM [inhibitor, single point].

For `c1ccc2occc2c1`, which Potency is on record?
Its Potency is inconclusive: 48.6 µM [inhibitor, single point].

Which Potency does the source give for `O=C(/C=C/c1ccccc1)NCCO` here?
Its Potency is inconclusive: 33.5 µM [inhibitor, single point].

Which Potency does the source give for `CCCCCCCCCCCC(=O)[O][Sn]([CH2]CCC)([CH2]CCC)[O]C(=O)CCCCCCCCCCC` here?
Its Potency is “inactive”.

Which Potency does the source give for `CN1CCC(=C2c3ccccc3CCc3sccc32)CC1` here?
Its Potency is active: 23.5 µM.

With `c1ccc2c(Cc3c[nH]c4ccccc34)c[nH]c2c1` as the compound, how does the Potency read?
The Potency was inconclusive: 37.2 µM [inhibitor, single point].

With `Nc1ccc(O)c(C(=O)O)c1` as the compound, how does the Potency read?
The Potency was inconclusive: 29.9 µM [inhibitor, partial curve, poor fit].

For `CCCCCCOc1ccccc1C(N)=O`, which Potency is on record?
Its Potency is inconclusive: 26.6 µM [inhibitor, single point].

With `CCC1(c2ccccc2)C(=O)NCNC1=O` as the compound, how does the Potency read?
Its Potency is “inactive”.

With `Cc1c(NC(=O)c2ccc(C(C)(C)C)cc2)cccc1-c1cn(C)c(=O)c(Nc2ccc(C(=O)N3CCOCC3)cc2)n1` as the compound, how does the Potency read?
The Potency was inconclusive: 10.1 µM [inhibitor, partial curve] and inconclusive: 3.72 µM [inhibitor, partial curve, poor fit].

For `N=C(N)N`, which Potency is on record?
Its Potency is “inactive”.

For `CC(=O)Oc1ccccc1C(=O)Nc1ncc([N+](=O)[O-])s1`, which Potency is on record?
The Potency was inconclusive: 29.9 µM [inhibitor, single point] and inactive.

For `CCc1nn(CCCN2CCN(c3cccc(Cl)c3)CC2)c(=O)n1CCOc1ccccc1`, which Potency is on record?
The Potency was inconclusive: 21.1 µM [inhibitor, single point].

With `CCN1/C(=C/C(C)=O)Sc2ccc(OC)cc21` as the compound, how does the Potency read?
The Potency was inconclusive: 26.3 µM [inhibitor, partial curve, poor fit] and inconclusive: 18.4 µM [inhibitor, single point].

For `CCCCCCCCOc1ccccc1C(=O)Nc1ccc(C(=O)OCC[N+](C)(CC)CC)cc1`, which Potency is on record?
The Potency was inconclusive: 29.9 µM [inhibitor, single point].

With `O=c1c2ccccc2nc2n1CCc1c-2[nH]c2ccccc12` as the compound, how does the Potency read?
The Potency was “inactive”.

Which Potency does the source give for `O=C1CCCC2=C1C(c1[nH]ncc1Cl)N=C(Nc1nc3ccccc3o1)N2` (stereo not given) here?
The Potency was inconclusive: 29.1 µM [inhibitor, single point].

For `O=C1c2c(O)ccc(O)c2C(=O)c2c(NCCNCCO)ccc(NCCNCCO)c21`, which Potency is on record?
The Potency was inconclusive: 9.4 nM [inhibitor, full curve, poor fit] and active: 132 nM.

With `NC(=O)Cc1cccc(C(=O)c2ccccc2)c1N` as the compound, how does the Potency read?
The Potency was inconclusive: 26.6 µM [inhibitor, single point].

Which Potency does the source give for `Cc1ccc(NC(=O)c2ccc(CN3CCN(C)CC3)cc2)cc1Nc1nccc(-c2cccnc2)n1` here?
Its Potency is active: 16.6 µM [middle of 4 runs].

With `COc1ccc(C2CC(c3ccccc3)=NN2c2ccc(S(N)(=O)=O)cc2)cc1` (stereo not given) as the compound, how does the Potency read?
Its Potency is inconclusive: 37.2 µM [inhibitor, single point].

With `CC1=C(C)C(=O)C(C(CCCCCC(=O)O)c2ccccc2)=C(C)C1=O` (stereo not given) as the compound, how does the Potency read?
The Potency was inconclusive: 29.9 µM [inhibitor, single point] and inactive.

For `CC(C)Cc1ccc(C(C)C(=O)O)cc1` (stereo not given), which Potency is on record?
Its Potency is “inactive”.

With `N=C1N=C(N)c2cc3ccccc3cc21` as the compound, how does the Potency read?
Its Potency is inconclusive: 38.6 µM [inhibitor, single point].

For `CCCc1nc2c(C)cc(-c3nc4ccccc4n3C)cc2n1Cc1ccc(-c2ccccc2C(=O)O)cc1`, which Potency is on record?
Its Potency is “inactive”.

For `CS(=O)c1ccc(-c2nc(-c3ccc(F)cc3)c(-c3ccncc3)[nH]2)cc1` (stereo not given), which Potency is on record?
The Potency was inconclusive: 16.6 µM [inhibitor, partial curve, poor fit] and inconclusive: 16.3 µM [inhibitor, single point].
